Assay results reported in PubChem BioAssay (NCI).
Several values for one entry are separate records, joined by “and”; a condition that tells them apart may be missing. Equal values may be shown once.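 Compound exposure: 48 hours, 5 concentrations, 96-well plates. GI50 is the concentration that inhibits growth by half. TGI marks complete inhibition of growth.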 Square brackets hold non-standard residues; d marks the D form. Peptide text beside a SMILES is read from it. * marks the point of attachment. hSer = N[CH](CCO)C(=O)O; Boc = CC(C)(C)OC(=O)*

What follows are compounds tested on NCI-H322M lung (assay: NCI anticancer screen, dose series, 48 h).

SMILES	GI50	TGI
COC1=CC(c2ccc[nH]2)=N/C1=C\c1[nH]c(C)c(C(=O)CCC(=O)Oc2ccc3c(c2)CCC2C3CC[C@]3(C)C(=O)CC[C@@H]23)c1C (some centres undefined)	31.7 µM	> 100 µM
Cn1ncc2cc(-c3cnc(N)c(Cl)c3N3CCC4(CCNC4=O)CC3)ccc21	73.6 µM	> 100 µM
c1cnc2c(c1)-n1cccc1C1(CCOCC1)NN2	–	> 100 µM
COc1ccc(C(=O)C2CC3(CCC2(O)c2ccc(OC)cc2)CC(=O)Nc2ccccc2C3=O)cc1 (centres undefined)	–	> 100 µM
CCCCCCCCCCCCCCCC[N+](C)(C)Cc1ccc(C[N+](C)(C)CCCCCCCCCCCCCCCC)cc1	–	> 100 µM
C=CCN1C(=O)CS/C1=N\NC(=O)c1c(C)nc2sccn12	–	> 100 µM
COc1ccc(C[C@@H]2CN(C(=O)c3ccccc3)[C@H](Cc3ccc(O)cc3)CN2C(=O)c2ccccc2)cc1Br	–	> 100 µM
O=c1cnn(C2OC(CO)C(O)C(F)C2O)c(=O)[nH]1 (centres undefined)	–	> 100 µM
Cc1nc2sc(C(=O)Nc3cccc4ccccc34)c(N)c2cc1C(C)O (centres undefined)	1.21 µM	> 50 µM
CC1(C)CCC(S(=O)(=O)c2ccc3c(c2)/C(=N\O)c2cc(S(=O)(=O)N4CCC(O)(c5cccc(C(F)(F)F)c5)CC4)ccc2-3)CC1	0.0787 µM	0.865 µM
N#C/C(=C\c1ccc(CP(=O)(O)O)cc1)C(N)=O	–	> 100 µM
N#Cc1[nH]c(=O)n(-c2ccc([N+](=O)[O-])cc2)c1N	–	> 10 µM
O=C1Nc2ccc(F)c3c(OCCO)cc(-c4ccc[nH]4)c1c23	1.75 µM	9.9 µM
COc1ccc2c(O)c3[n+](cc2c1OC)CCc1cc2c(cc1-3)OCO2	–	> 100 µM
O=C1C=C(SCCO)C(=O)c2ccccc21	1.75 µM	3.2 µM
Cn1ncc2c(Nc3ccc(Br)cc3)nc(Nc3ccc(Br)cc3)nc21	3.93 µM	17.8 µM
COC1/C=C\C=C(/C)C(=O)NC2=CC(=O)C(NCCCl)=C(CC(C)CC(OC)C(O)C(C)/C=C(/C)C1OC(N)=O)C2=O (centres undefined)	–	16.3 µM
c1ccc2c(c1)O[As](O[As]1Oc3ccccc3O1)O2	5.18 µM	19.9 µM
Cc1ccc(NS(=O)(=O)c2ccc(-c3cnc(C4CC4)o3)cc2)cc1	6.18 µM	25 µM
CCCC[C@@H]1NC(=O)[C@H](CCCCN)NC(=O)[C@H](CCCNC(=N)N)NC(=O)[C@H](CC(C)C)NC(=O)[C@@H](NC(=O)[C@H](Cc2cccc(Cl)c2)NC(=O)[C@@H]2CCCN2C(=O)[C@@H](NC(C)=O)C(C)C)CCSSC[C@@H](C(=O)N[C@@H](CCCCN)C(=O)N2CCC[C@H]2C(=O)N2CCC[C@H]2C(=O)N[C@@H](CCC(=O)O)C(N)=O)NC(=O)[C@H](Cc2ccccc2)NC(=O)[C@H](CO)NC(=O)[C@H](C)NC(=O)[C@@H]2CCCN2C1=O	> 50 µM	> 50 µM
O=C1C(=O)c2ccc(Br)cc2-c2cc(Br)ccc21	25.9 µM	> 100 µM
N#CC(c1ccc(O)cc1)N1CCN(C(C#N)c2ccc(O)cc2)CC1 (centres undefined)	–	> 100 µM

SMILES	GI50	TGI
O=C(CCSC(CC(=O)c1ccc(Cl)cc1)c1ccc(Cl)cc1)Nc1ccc(Cl)cc1 (centres undefined)	–	22.7 µM
COc1ccc2c(c1)C(=O)c1c-2c(NCCCN(C)C)nc2ccccc12	5.79 µM	19.3 µM
CC1OCC2OC(C)OC(C3C4=C(CC(C)(C)CC4=O)OC4=C3C(=O)CC(C)(C)C4)C2O1 (centres undefined)	–	> 100 µM
COc1ccc2c(c1O)-c1c(OC)c(OC)cc3c1[C@H](C2)[N+](C)(C)CC3	–	> 100 µM
O=C1c2ccn(CCCCN3CCOCC3)c2C(=O)c2c1c(O)c1ccccc1c2O	1.96 µM	8.43 µM
COC(=O)[C@]1(C)CCCn2c(=O)n(-c3ccccc3)c(=O)n21	–	> 100 µM
COc1ccc(NC(=S)NN=C(C)c2cccc(C(C)=NNC(=S)Nc3ccc(OC)cc3)n2)cc1	–	37.8 µM
CN(C)CC1CCC/C(=C\c2ccc(N(C)C)cc2)C1=O (centres undefined)	–	31.7 µM
O=C(O)CSc1n[nH]c(/C=C/c2ccccc2)n1	–	> 100 µM
CN(C)CCC1(C2=CCCC2)CC/C(=C\c2ccc3c(c2)OCO3)C1=O (centres undefined)	–	29.6 µM
O=C1Nc2ccc(Cl)cc2/C1=C\c1c(-c2ccc(F)cc2)nc2ccccn12	3.69 µM	19.6 µM
COC1/C=C/O[C@@]2(C)Oc3c(C)c(O)c4c(O)c(cc(O)c4c3C2=O)NC(=O)/C(C)=C\C=C\[C@H](C)C(O)[C@@H](C)[C@@H](O)[C@@H](C)[C@H](OC(C)=O)[C@@H]1C (some centres undefined)	15.7 µM and 43.7 µM	29.6 µM and 132 µM
OCC(O)CC[CH2][Sn]([c]1ccccc1)([c]1ccccc1)[c]1ccccc1 (centres undefined)	11.1 µM	23.1 µM
COc1ccc(-c2cc3cccc(OC)c3c(=O)o2)cc1OC	> 100 µM	> 100 µM
CCOC(=O)NNC(=O)NCCNC(=O)NNC(=O)OCC	–	> 100 µM
CS(=O)(=O)NNS(=O)(=O)c1ccc(Br)cc1	–	> 100 µM
COc1ccccc1-c1cc2c3c(nc4ccccc42)C(=O)c2cccnc2-c3n1	6.85 µM	17.3 µM
COc1nc(OC)c2c(=O)oc(-c3ccccc3)cc2n1	–	> 100 µM
O=S(=O)(O)c1cc(Cl)c(O)c2ncc(Cl)cc12	–	> 100 µM
O=[N+]([O-])/C(C(Cl)=C(Cl)Cl)=C1\Nc2ccccc2O1	–	> 100 µM
CS(=O)(=O)c1nccc(-c2c(-c3cccc(OCc4ccc(F)cc4)c3)nc3sccn23)n1	2.95 µM	7.4 µM
C[C@@H]1O[C@@H](O[C@H]2C[C@@H](O)[C@]3(CO)C4C(CC[C@]3(O)C2)[C@@]2(O)CC[C@H](C3=CC(=O)OC3)[C@@]2(C)C[C@H]4O)[C@H](O)[C@H](O)[C@H]1O (some centres undefined)	0.0198 µM	0.0948 µM

SMILES	GI50	TGI
C[N+]1(C)CC=C(N2CCOCC2)CC1	–	> 10 µM
COc1cc(OC)c(-c2cc(=O)c3c(OC)c(OC)c(OC)c(OC)c3o2)cc1OC	–	> 100 µM
COc1ccc(-c2nc3ncccn3c2-c2ccc(S(C)=O)cc2)cc1 (centres undefined)	–	> 100 µM
O=C(NC1CCCCC1)c1c(O)[nH]c(=S)[nH]c1=O	–	> 100 µM
CC12CC3c4ccccc4CN1C3(c1ccccc1)OC2=O (centres undefined)	–	> 100 µM
CN(C)[C@@H]1C(=O)C(C(N)=O)=C(O)[C@@]2(O)C(=O)C3=C(O)c4c(O)cccc4C[C@H]3C[C@@H]12	–	6.64 µM
O=C1CCC2(c3ccc(F)cc3)Nc3ccccc3N12 (centres undefined)	–	> 100 µM
COc1ccc(C2SCC(=O)N2N=C2NC(=O)CC(=O)N2)cc1 (centres undefined)	–	> 100 µM
COC(=O)C1Cc2c(C)cccc2C1=O (centres undefined)	–	> 100 µM
O=C(CC12CC3CC(CC(C3)C1)C2)NCCOCCOCCNC(=O)c1cc2c(o1)C(=O)c1ccccc1C2=O	1.16 µM	2.42 µM
O=S(=O)(c1cccc(C(F)(F)F)c1)N1c2ccccc2-n2cccc2C1c1cccnc1 (centres undefined)	–	> 72.2 µM
Cc1oc2ccccc2c(=O)c1Cn1nnc2ccccc21	–	> 100 µM
COc1c2cc(C(C)(C)C)cc1CSCc1cc(C(C)(C)C)cc(c1OC)CCCCC2	–	> 50 µM
Cc1c2c(n3c(nc4ccccc43)c1C#N)N(c1ccc(Cl)cc1)CC2	–	> 100 µM
CN(C)c1c(Cl)c(=O)oc2c1ccc1nc(-c3ccccc3)sc12	–	> 100 µM
C=C(NC(=O)C(=C)NC(=O)c1csc(C2=NC3c4csc(n4)C4NC(=O)c5csc(n5)C(C(C)(O)C(C)O)NC(=O)C5CSC(=N5)/C(=C/C)NC(=O)C(C(C)O)NC(=O)c5csc(n5)C3(CC2)NC(=O)C(C)NC(=O)C(=C)NC(=O)C(=C)NC(=O)C(C(C)C)NC2C=Cc3c(C(C)O)cc(nc3C2O)C(=O)OC4C)n1)C(N)=O (centres undefined)	–	> 100 µM
C[N+]1(C)C2Cc3ccccc3C1Cc1ccccc12	–	> 100 µM
CCOn1cc(C[C@@]2(O)C(=O)OC3[C@@H](O)CO[C@@]32O)c2ccccc21 (some centres undefined)	–	> 100 µM
CCOc1ccc(NC(=O)Nc2cc(C(C)C)ccc2C)cc1	2.82 µM	10.6 µM
CN(C)CCNC(=O)c1ccc2ccc3cccnc3c2n1	–	47.5 µM
CCOC(=O)C(NCc1ccccc1)(NC(=O)c1ccccc1)C(F)(F)F (centres undefined)	–	> 100 µM
On1c(-c2ccccc2)c(-c2c(-c3ccccc3)n(O)c3ccccc23)c2ccccc21	–	> 100 µM

SMILES	GI50	TGI
O=C1Nc2ccccc2C(=O)OC(Cc2ccccc2)=Nc2ccccc21	–	> 100 µM
CCN(CC)c1ccc(NC(C(=O)c2ccccc2)c2ccccc2)cc1 (centres undefined)	12.1 µM	26.1 µM
CN1CC(c2ccccc2)=Cc2c1ccc(N)c2N=N	–	> 100 µM
COCCC(NC(=O)C(CC(C)C)NC(=O)OC(C)(C)C)C(N)=O (stereo not drawn) (Boc-Leu-[hSer](Me)-NH2; configuration not given here)	–	> 100 µM
CCC1(O)C=CC(=O)C=C1	–	> 100 µM
c1cc(-c2cscc2-c2ccsc2)cs1	–	> 100 µM
COCCNCC(O)Cn1c2ccc(Cl)cc2c2cc(Cl)ccc21 (centres undefined)	2.47 µM	6.54 µM
O=C1OCC(c2ccc(O)c(O)c2)=C1c1cc(O)c(O)c(O)c1	29.2 µM	84.6 µM
CCCCCCCCCCCCNC(=O)NCC(OCC)OCC	–	> 10 µM
COc1ccc(/C=C2/CN(C(=O)c3ccccc3F)C/C(=C\c3ccc(OC)cc3)C2=O)cc1	20.8 µM	84.6 µM
CC1=CC[C@@H]2[C@@H](CC[C@@]2(C)O)C(C)(C)[C@H]1CC[C@@H]1[C@@]2(C)CCC(=O)C(C)(C)O[C@@H]2CC[C@]1(C)O	–	> 100 µM
O=C(c1ccccc1)c1ccc(-c2ccc(O)cc2)cc1	4.04 µM	51.1 µM
Cc1cccc(C)c1NC(=O)CCC(=O)NNC(=O)c1cc(O)c2ccccc2c1	–	> 100 µM
COc1cc2c(cc1OC)C(=O)N(c1ccc(O)cc1)C2	–	> 100 µM
COC[C@H]1C(=O)NCC(=O)N2NCCC[C@H]2C(=O)N(O)[C@H](C)C(=O)O[C@@H](C(C)C)[C@H](NC(=O)[C@](C)(O)[C@]2(O)CC[C@@H](CC(C)C)[C@H](C)O2)C(=O)N2NCCC[C@@H]2C(=O)N1O	0.0116 µM	0.0246 µM
COc1cc2c(-c3nc4cc(Cl)c(F)cc4s3)cc(=O)oc2c(C)c1OC	1.84 µM	3.48 µM
CC(=O)O[C@]1(C(C)=O)CC[C@H]2[C@@H]3C[C@H](C)C4=CC(=O)C=C[C@]4(C)[C@@]3(F)[C@@H](O)C[C@@]21C	–	> 100 µM
C=CC1CC12C(=O)C1OC2(C)C2C(=O)c3ccccc3C(=O)C12 (centres undefined)	> 43.3 µM	> 91.8 µM
FC(F)(F)c1cc(Nc2ccc3c(OCCCN4CCOCC4)cccc3n2)ccc1Cl	2.52 µM	8.33 µM
C=C1C(=O)O[C@@H]2C[C@]3(C)[C@@H](C[C@H]12)[C@](C)(O)CC[C@@H]3O	–	> 100 µM
COc1cc2c(cc1OC)C13CCN4CC5=CCOC(CC(=O)O)C(C5CC41)C3N2 (centres undefined)	–	> 100 µM
CSc1n[nH]c(N)c1C(=O)Nc1ccc(Cl)cc1	–	> 100 µM
